# Publication PMC4336329 (PLoS ONE, 2015)
# Among all 310,000 compounds or so, about 2,200 (0.71%) showed an effect of 50% or more. Effects have a minus sign here. This is one part of the list.
# Target: human ether-à-go-go-related gene (hERG) potassium channel (human, UniProt Q12809)
# Test: primary screen, population patch clamp on CHO cells stably expressing hERG
# Chain of human ether-à-go-go-related gene (hERG) potassium channel (Q12809 whole entry, looked up): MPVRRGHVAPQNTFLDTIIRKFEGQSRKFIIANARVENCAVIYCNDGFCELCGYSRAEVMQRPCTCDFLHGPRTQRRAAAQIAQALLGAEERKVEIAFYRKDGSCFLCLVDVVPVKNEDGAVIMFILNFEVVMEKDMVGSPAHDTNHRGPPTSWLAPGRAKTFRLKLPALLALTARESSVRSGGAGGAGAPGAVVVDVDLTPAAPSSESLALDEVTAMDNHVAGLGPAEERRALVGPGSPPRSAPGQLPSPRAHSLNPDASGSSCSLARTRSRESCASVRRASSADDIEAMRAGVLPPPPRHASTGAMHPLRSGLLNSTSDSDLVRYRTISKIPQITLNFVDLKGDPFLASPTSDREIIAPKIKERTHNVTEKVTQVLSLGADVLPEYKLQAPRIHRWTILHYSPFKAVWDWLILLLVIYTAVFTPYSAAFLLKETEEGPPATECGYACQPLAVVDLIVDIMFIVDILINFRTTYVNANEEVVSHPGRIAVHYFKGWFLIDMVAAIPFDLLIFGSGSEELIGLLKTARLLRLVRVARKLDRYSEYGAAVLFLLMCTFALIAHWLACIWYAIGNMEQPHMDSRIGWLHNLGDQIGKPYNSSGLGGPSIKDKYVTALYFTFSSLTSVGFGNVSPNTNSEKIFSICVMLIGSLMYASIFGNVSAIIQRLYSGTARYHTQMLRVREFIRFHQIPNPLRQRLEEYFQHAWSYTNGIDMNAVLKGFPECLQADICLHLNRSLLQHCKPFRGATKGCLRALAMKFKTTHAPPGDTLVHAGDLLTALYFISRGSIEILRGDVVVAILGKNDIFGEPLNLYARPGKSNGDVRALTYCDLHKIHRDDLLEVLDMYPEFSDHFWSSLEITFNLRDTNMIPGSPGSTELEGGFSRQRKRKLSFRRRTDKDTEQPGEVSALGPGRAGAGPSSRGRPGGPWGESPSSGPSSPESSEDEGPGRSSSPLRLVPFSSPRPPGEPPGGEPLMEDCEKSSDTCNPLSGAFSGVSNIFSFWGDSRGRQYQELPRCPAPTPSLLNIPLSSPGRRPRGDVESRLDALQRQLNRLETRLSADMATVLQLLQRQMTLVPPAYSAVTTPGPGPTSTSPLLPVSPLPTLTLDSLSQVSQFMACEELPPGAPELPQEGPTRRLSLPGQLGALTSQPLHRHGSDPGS
row,SMILES,"hERG current change (%, negative = inhibition) at 1uM [%]"
1,CCOc1ccc(S(=O)(=O)N2CCN(C(=O)c3cccn3C)CC2)cc1,-6.68
2,Fc1ccc(NC(=S)Nc2ccccc2OC(F)F)cc1Cl,18.7
3,Cc1cc(C)n(CCCNCC(O)c2ccccc2)n1.O=C(O)C(=O)O (stereo not drawn),9.17
4,CCOn1c(SCC)nc2ccccc2c1=O,-0.23
5,COc1cc(CNc2ccc3[nH]c(=O)[nH]c3c2)ccc1OCc1ccccc1Cl,14.3
6,CCCCN1C(=O)c2ccc(C(=O)Nc3c(N)n(CCCC)c(=O)n(C)c3=O)cc2C1=O,-20.3
7,Oc1ccc(-c2sc(Nc3ccccc3)n[n+]2-c2ccc(F)cc2)cc1.[Cl-],9.65
8,CC1CN(C(=O)COc2ccc3c(-c4ccccc4)cc(=O)oc3c2)CC(C)O1 (stereo not drawn),10.8
9,COc1ccc2c(c1)O[C@H](c1ccc3c(c1)OCO3)[C@@H](OC(=O)Nc1cc(OC)c(OC)c(OC)c1)C2=O,13.9
10,Cc1ccc(OCC(=O)Nc2nnn(C)n2)c(C)c1,9.57
11,O=C(O)CSc1nnc(COc2cccc3cccnc23)n1-c1cccc(C(F)(F)F)c1,16.6
12,Cc1cccc2cc(CN(Cc3ccco3)C(=O)c3ccncc3)c(=O)[nH]c12,-3.19
13,CC1CCN(C2(O)C(=O)Nc3ccc(Cl)cc32)CC1 (stereo not drawn),15.4
14,COC(=O)C1=C(N)N(c2ccccc2F)C2=C(C(=O)CC(C)(C)C2)C1c1ccc(OC)c(OC)c1 (stereo not drawn),3.06
15,CCOC(=O)c1sc2ncnc(N3CCN(C)CC3)c2c1C,0.473
16,CCOC(=O)c1cc(CC)sc1NC(=O)C1CC1,9.15
17,O=C1CC(c2ccccc2)CC2=C1C=Nc1ccccc1N2 (stereo not drawn),-9.6
18,COc1ccccc1-c1nc(C#N)c(N2CCN(Cc3ccccc3)CC2)o1,12.8
19,C=CCn1cccc(C(=O)Nc2ccc(Cl)cc2)c1=O,10
20,Cc1ccc2c(C(=O)CN3CCCC3)c(C)[nH]c2c1,10.8
21,N=C1C(c2nc3ccccc3[nH]2)=C(O)CN1c1ccc(F)cc1,1.91
22,CC1(C)Cn2c(nc(=O)c3c2NCN(CCc2ccccc2)C3)S1,11.4
23,NCc1cccc(CNc2ccc([N+](=O)[O-])cc2C(N)=O)c1,7.31

row,SMILES,"hERG current change (%, negative = inhibition) at 1uM [%]"
1,CC(C)NC(=O)C1CCN(S(=O)(=O)c2ccc(N3CCCC3=O)cc2)CC1,21.4
2,Nc1nonc1-c1nc2ccccc2n1CC(=O)NC1CCCC1,4.39
3,CCSc1nc(-c2ccccc2)c(C#N)c(=O)[nH]1,8.08
4,NC(=O)CC(NC(=O)Cc1cccc2ccccc12)c1ccc(N2CCC(Br)CC2)c([N+](=O)[O-])c1 (stereo not drawn),3.18
5,S=C(NCc1ccc(Cl)c(Cl)c1)NCc1ccco1,16
6,CC(C)(C)c1cc(C(F)(F)F)n2ncc(-c3ccccc3)c2n1,15.8
7,Cn1c(SCC(=O)NC2CC2)nnc1-c1cccc(NC(=O)c2ccccc2F)c1,9.12
8,Cc1ccc(C(=O)N2CCN(C34CC5CC(CC(C5)C3)C4)CC2)o1,15.9
9,COc1cc(C(=O)OCC(=O)NC(=O)c2cccn2C)ccc1OC(F)F,11.1
10,C=CCN1C(=O)C(C)(C)N(C(=O)c2cccc([N+](=O)[O-])c2)c2ccccc21,5.89
11,CCOC(=O)CNC(=O)C12CC3CC(C1)CC(c1ccc(C)cc1)(C3)C2,7.72
12,CCc1ccc(C(C)NC(=O)c2ncn[nH]2)cc1 (stereo not drawn),-0.151
13,CC1CCCCC1NC(=O)CN(C)S(=O)(=O)c1cccc2nsnc12 (stereo not drawn),14.2
14,CCOc1ccc(Cn2c(O)cc(=O)[nH]c2=O)cc1,16.3
15,C=CCNC(=O)CSc1nc2sc3c(c2c(=O)n1CCCOC)CCC3,-18.6
16,Cc1ccc(C(=O)COC(=O)CCN2C(=O)C3C4CC(C(Br)C4Br)C3C2=O)cc1 (stereo not drawn),8.98
17,CCOC(=O)c1ccc(NC(=O)N2CC3CC(C2)c2cccc(=O)n2C3)cc1 (stereo not drawn),15.3
18,CC(C)c1nc(NCCN2CCOCC2)c(C#N)c2c1COC(C)(C)C2,13.3
19,CCOc1ccc(S(=O)(=O)NCCC(=O)N2CCN(c3ccccc3O)CC2)cc1,-1.88
20,CSc1ccc(CCNC(=O)CS(=O)(=O)Cc2nc(-c3ccccc3F)oc2C)cc1,11.2
21,CCOC(=O)/C(C#N)=C1/C=CN(C)C=N1,8.2
22,Cn1nc(C(=O)NC2CCC(O)CC2)c2ccccc2c1=O (stereo not drawn),16
